# Results reported in PubChem BioAssay AID651820 (National Center for Advancing Translational Sciences (NCATS), 2012).
# Among all 340,000 compounds or so, about 12,000 (3.5%) were called active. Inconclusive results, whose numbers are uncertain, are shown with a selection of clear calls. The call rests on the fitted dose curve; in most records, active means well fitted inhibition curve with a large enough effect; inconclusive means small, poorly fitted or top-dose-only effect, or another doubt; inactive means no such curve, though single readings can be large or run the other way. Potencies of inconclusive entries are left out as doubtful fits.
# Assay: qHTS Assay for Inhibitors of Hepatitis C Virus (HCV)
# Settings: Huh7.5.1 HCVcc-Cre (HCVcc is cell-culture hepatitis C virus) infection, luciferase reporter, 44 h; series mostly up to 41.8 µM
# Procedure, shortened: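 A cell-based infection assay in which seeded cells (1,000 per well) receive test compound after 4 h, are inoculated with HCVcc-Cre at approximately 0.5 moi, and are incubated 44 h before luminescence detection.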
# Potency means the concentration at half of the fitted maximal effect; tags describe the fitted curve by direction and shape.
row,Structure (SMILES),Potency
1,O=C1NC[C@H](Cc2ccccc2)N(CC2CCN(CCC3CCCC3)CC2)C1=O,"inconclusive [inhibitor, single point]"
2,CCN1C(=O)c2ccc(C(=O)Nc3ncc(C)s3)cc2C1=O,inactive
3,O=S(=O)(c1ccc(F)cc1)N1CCCC(c2nc(-c3ccc(F)cc3)no2)C1 (stereo not given),"inconclusive [inhibitor, partial curve, poor fit]"
4,Cc1ccc(C(C)C)c(OCC(=O)NNCC(=O)Nc2cccc(F)c2)c1,"inconclusive [inhibitor, single point]"
5,O=C(NCCN1CCOCC1)NC1(C(F)(F)F)Oc2ccccc2O1,"inconclusive [inhibitor, single point]"
6,CCOc1ccc2nc(NCCNC(=S)NCCCN(C)C)c(C#N)cc2c1,"inconclusive [inhibitor, single point]"
7,O=C(C1CCCC1)N1CCC(CC2CC(c3ccc(Cl)cc3)=NO2)(C(=O)NCC2CCCCC2)CC1 (stereo not given),inactive
8,COc1cc(NC(=O)c2ccccc2[N+](=O)[O-])ccc1NC(=O)c1cc2ccccc2o1,"inconclusive [inhibitor, partial curve]"
9,CS(=O)(=O)N1CCc2cc(C(=O)Nc3ccc(COCC(F)(F)F)cc3)ccc21,active: 11.2 µM
10,COc1ccc(OC)c(C2CC(=O)c3c([nH]c(C(=O)OCC4CCCO4)c3C)C2)c1 (stereo not given),"inconclusive [inhibitor, partial curve, poor fit]"
11,COC(=O)c1[nH]c2ccc(Cl)cc2c1NC(=O)CN1CCc2cc(OC)c(OC)cc2C1,"inconclusive [inhibitor, single point]"
12,CC(C)N(C(=O)CSc1nnnn1-c1ccc2c(c1)OCO2)C(C)C,inactive
13,Cc1noc(C)c1COc1ccccc1C(=O)N(C)CC(=O)Nc1ccc(F)cc1,inactive
14,COc1ccc(N2CCN(C(=O)CCc3nc(-c4ccc(C)cc4)no3)CC2)cc1,"inconclusive [inhibitor, single point]"
15,O=C(NC(=S)Nn1cnc2c(cnn2-c2ccccc2)c1=O)c1ccc(Oc2ccccc2)cc1,"inconclusive [inhibitor, single point]"
16,CCOc1ccc(NC(=O)CNc2cccc(S(=O)(=O)N3CCCCCC3)c2)cc1OCC,active: 11.2 µM
17,COc1ccc(-n2cc(CN[C@H]3CCCCNC3=O)c(-c3cccc(F)c3)n2)cc1,"inconclusive [inhibitor, single point]"
18,CN(C)S(=O)(=O)c1ccc(NC(=S)NC(=O)C2CCC2)cc1,inactive
19,O=C(NCCCN1CCOCC1)c1ccc(Sc2ccc(Br)cc2)c([N+](=O)[O-])c1,"inconclusive [inhibitor, full curve]"
20,COC(=O)c1cccc(NC(=O)c2ccc3c(c2)C(=O)N(C(C)(C)C)C3=O)c1,"inconclusive [inhibitor, partial curve]"
21,CCOC(=O)c1ccc(NC(=O)c2ccccc2C)cc1,"inconclusive [inhibitor, single point]"
22,CCOc1ccc(/C=N/Nc2cc(C)nc(N3CCOCC3)n2)cc1,inactive

row,Structure (SMILES),Potency
1,COc1ccc(CN2CCCC(C(=O)c3ccc(Cl)cc3)C2)c(OC)c1 (stereo not given),"inconclusive [inhibitor, single point]"
2,C/C(O)=C(/N=O)C(=O)Nc1ccccc1,inactive
3,CCc1cc(=O)oc2cc(OCC(=O)OC)c(Cl)cc12,"inconclusive [inhibitor, single point]"
4,Cc1ccc(NS(=O)(=O)c2cc(C(=O)Nc3cccc(N(C)S(C)(=O)=O)c3)ccc2C)c(C)c1,"inconclusive [inhibitor, single point]"
5,COC(=O)c1ccc(OC)c(CSc2nnc(COc3cccc(C)c3)o2)c1,"inconclusive [inhibitor, single point]"
6,CN1C(C(=O)NCc2ccccc2)CC2Cn3c(nc4cc5ccccc5cc43)C21 (stereo not given),"inconclusive [inhibitor, single point]"
7,COc1ccc(C(=O)Nc2nc(-c3ccc([N+](=O)[O-])cc3)c(-c3ccccc3)s2)cc1,active: 6.31 µM
8,COc1ccccc1C(=O)Nc1cccc(S(=O)(=O)N2CCCC2)c1,"inconclusive [inhibitor, single point]"
9,O=C(Nc1ccc(F)cc1)OCCN1CCN(Cc2ccccc2)CCC1=O,"inconclusive [inhibitor, partial curve, poor fit]"
10,CCOc1ccc(-c2nc(-c3ccc(OC)c(OC)c3)no2)cc1OCC,"inconclusive [inhibitor, partial curve]"
11,Cc1ccc2[nH]c(=O)c(CN(CC3COCCO3)C(=O)Nc3ccccc3F)cc2c1 (stereo not given),"inconclusive [inhibitor, single point]"
12,CCOc1ccc(NC(=O)CSc2nnc(Cc3cccn3C)n2-c2ccc(F)cc2)cc1,"inconclusive [inhibitor, single point]"
13,O=C1C=CC(=Nc2ccc3c(c2)Cc2cc(F)ccc2-3)O1,inactive
14,CCCC(O)(CCC)C(=O)NN(C(=O)CCl)c1cccc(C)c1,"inconclusive [inhibitor, single point]"
15,Cc1ccc(NC(=S)NCCSc2ccc(Cl)cc2)c(C)c1,"inconclusive [inhibitor, single point]"
16,CC(C)N1CCC2(CC1)N=C(c1ccc3c(c1)OCO3)CC(c1cc(Cl)ccc1O)N2 (stereo not given),"inconclusive [inhibitor, single point]"
17,CCOc1ccc(OCc2ccc(C(=O)N3CCOCC3)cc2)cc1,"inconclusive [inhibitor, single point]"
18,CC(C)(C)N1C(=O)[C@H]2[C@@H](c3ccc(Br)cc3)N3C(=O)N(c4ccc(Br)cc4)C(=O)[C@@]3(Cc3ccccc3)[C@H]2C1=O,active: 7.94 µM
19,O=C(CN1CCN(S(=O)(=O)c2ccc3ccccc3c2)CC1)NC(=O)NC1CCCCC1,"inconclusive [inhibitor, single point]"
20,COc1cc(OC)c(NC(=O)CN(C)S(=O)(=O)c2ccc(-c3ccc(=O)[nH]n3)s2)cc1Cl,"inconclusive [inhibitor, partial curve]"
21,COc1ccc2c(c1)CCCN2S(=O)(=O)c1ccc(Cl)cc1,"inconclusive [inhibitor, single point]"
22,Cc1ccc(C(=O)OCn2ncc(Cl)c(Cl)c2=O)cc1,active: 2.51 µM

row,Structure (SMILES),Potency
1,CN(C)S(=O)(=O)c1ccc(N2CCCC2)c(C(=O)Nc2nc3ccc(F)cc3s2)c1,active: 7.94 µM
2,O=[N+]([O-])c1ccccc1CNCCc1c[nH]c2ccccc12,inactive
3,CCOC(=O)c1oc2ccccc2c1NC(=O)c1cccc(OC)c1,inactive
4,O=C(CSc1nnc(C2CC2)n1Cc1ccccc1)c1cc2ccccc2o1,inactive
5,CSc1nc(-c2ccccc2)ccc1C(N)=O,"inconclusive [inhibitor, partial curve, poor fit]"
6,CC1CN(C(=O)CCc2cc(C(C)(C)C)c(O)c(C(C)(C)C)c2)CC(C)O1 (stereo not given),"inconclusive [inhibitor, partial curve]"
7,CCOC(=O)C1(CC2CC2)CCN(Cc2ccc(OC)cc2F)CC1,"inconclusive [inhibitor, single point]"
8,COc1ccc(N2CCN(C(=O)CCNC(=O)c3ccc(C(C)(C)C)cc3)CC2)cc1,"inconclusive [inhibitor, single point]"
9,CCN(Cc1ccc(NC(C)=O)cc1)CC1CCCN(CCc2cccc(F)c2)C1 (stereo not given),"inconclusive [inhibitor, partial curve]"
10,O=c1cc(CN2CCN(C/C=C/c3ccccc3)CC2)c2cc(O)ccc2o1,"inconclusive [inhibitor, partial curve]"
11,COC(=O)Cn1cc(/C=C/[N+](=O)[O-])c2ccccc21,"inconclusive [inhibitor, single point]"
12,Cc1[nH]n(-c2ccccc2)c(=O)c1/C=N/N(C)c1ccccc1,"inconclusive [inhibitor, single point]"
13,CC(C)N1CCN(C(=O)c2ccc(OC3CCN(CCc4ccccc4)CC3)cc2)CC1,"inconclusive [inhibitor, partial curve]"
14,CCN(CC)S(=O)(=O)c1ccc(/C=C/C(=O)Nc2ccc(F)cc2F)cc1,"inconclusive [inhibitor, full curve]"
15,CC1CCN(CC(=O)Nc2ccc(Br)cc2[N+](=O)[O-])CC1,"inconclusive [inhibitor, single point]"
16,C=CCS(=O)(=O)c1cccc2cccnc12,"inconclusive [inhibitor, full curve]"
17,CC(NC(=O)c1cccc2ccccc12)c1ccc2c(c1)CCCC2 (stereo not given),"inconclusive [inhibitor, single point]"
18,Cc1cc(C(=O)COc2ccc(F)cc2Br)c(C)n1C1CC1,"inconclusive [inhibitor, partial curve]"
19,COc1ccc(Oc2ccc(/C=C/C(=O)c3ccc(O)cc3)cc2[N+](=O)[O-])cc1,"inconclusive [inhibitor, single point]"
20,Cc1ccc2nc(-c3ccccc3)c(-c3ccccc3)nc2c1,"inconclusive [inhibitor, single point]"
21,Nn1c(SCc2ccccc2)nnc1-c1ccco1,inactive
